Measurements published in paper PMC12136788.
This is one part of the list.

T1: UNK ZnF1-6 (called full-length) (human, UniProt Q9C0B0 30-357)
T1 sequence: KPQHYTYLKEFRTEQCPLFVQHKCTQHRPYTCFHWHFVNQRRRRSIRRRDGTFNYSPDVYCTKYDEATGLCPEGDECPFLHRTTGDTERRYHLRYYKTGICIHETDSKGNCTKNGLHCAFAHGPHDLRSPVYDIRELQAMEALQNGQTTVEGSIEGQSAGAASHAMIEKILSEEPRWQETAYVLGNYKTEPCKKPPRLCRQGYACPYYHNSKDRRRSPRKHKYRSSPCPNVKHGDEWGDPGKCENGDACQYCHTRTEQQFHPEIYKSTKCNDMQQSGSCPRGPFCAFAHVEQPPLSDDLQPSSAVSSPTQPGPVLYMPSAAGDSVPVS

B1: chrX:55006554:55006655:+|CDS|ENSG00000169188|unk|FALSE|unique (ssRNA)
RNA: GGGAGUUCUACAGUCCGACGAUCAGGGCGCAAGUGGAUGGACAGCUUGCUCAGUAACUUGGGGUGCCAGUCUGCCUCUCAUGUAGGGCCCUUCAUCGAUAGCUACCGCUGCUUCCAACCAAAGCAGGAGGGGGCCUUCACCUGCAACAGAGGAUUGAGCAUCA
B2: ENSG00000198589:be:win_4651|CDS|ENSG00000198589|bound_else_gene|NA|bound_elsewhere_windowed (ssRNA)
RNA: GGGAGUUCUACAGUCCGACGAUCAUUUUGGAACCCCAAAAUGAAAGGCAUAGCCAGUCAUGUACAGAAACUGGCAGUGAAAAUGAGAAUGUAUCACUCUCUGAAAUCACACCAGCAGCAUUCAGCACUUUAACUACGGCAUCACAACAGAGGAUUGAGCAUCA
B3: chr16:50751694:50751795:+|CDS|ENSG00000083799|unk|FALSE|unique (ssRNA)
RNA: GGGAGUUCUACAGUCCGACGAUCGCUUUUUCAGUGUGAUGAAGAUUGUGGCGUGUUUGUUGCAUUGGACAAGCUAGAACUCAUAGAAGAUGAUGACACUGCAUUGGAAAGUGAUUACGCAGGUCCUGGGGACACAAUGCAGGUCAACAGAGGAUUGAGCAUCA
B4: chr13:19825080:19825183:-|CDS|ENSG00000132950|unk|total|mutant (ssRNA)
RNA: GGGAGUUCUACAGUCCGACGAUCUUUCCGAGAAGAAAAUGAGAAACAAUUAUAUGGAUCGUCAAAUACACUUUUGAAAAAAACCGAGGGAAUCCCAGAAAAAAAGGAAAAGACUUCACAGCUACAGCUUUCAGCCGAAUGUGGCAACAGAGGAUUGAGCAUCA
B5: chr3:124966548:124966651:-|3pUTR|ENSG00000173706|unk|total|mutant (ssRNA)
RNA: GGGAGUUCUACAGUCCGACGAUCAGGAAGAAUGCAAAGUUCAGUAUUUCAAUACUUUGUAUUUUACUUGAAAUUACCCUCCGCCGCAUCUUUUUUUUCCUGUCUGAAAGCUUUUGUGUGGAUGAGAAGGGACAUUUCAUUUCCCAACAGAGGAUUGAGCAUCA
B6: chr1:119913532:119913650:-|3pUTR|ENSG00000134250|msi1|total|mutant (ssRNA)
RNA: GGGAGUUCUACAGUCCGACGAUCUCAUGCUCUUGGCAAUUUCUUUGACUUUCUUUUAAGGGCAGAAGCAUUUCCGUUAAUUGCCGAUAAAGAACCGUUUUCUUCCUCUUCUCCUUGGGCCAGUUAAUAAUUGGUCCAUGGCUACAACAGAGGAUUGAGCAUCA
B7: ENSG00000107863:be:win_5351|CDS|ENSG00000107863|bound_else_gene|NA|bound_elsewhere_windowed (ssRNA)
RNA: GGGAGUUCUACAGUCCGACGAUCGGAAUCACAAAGUGAAUGCCGAGACUGCUAAAAGGAAAAGCAUCCGGCGCAGACAUACACUAGGAGGGCACAGAGAUGCUACCGAAAUCAGCGUUUUGAAUUUUUGGAAAGUGCAUGAGCCAACAGAGGAUUGAGCAUCA
B8: chr6:46858128:46859523:-|CDS|ENSG00000069122|control|control|control (ssRNA)
RNA: GGGAGUUCUACAGUCCGACGAUCAGCUGUGGUGUGGAAAUCGGUGACCAAGAACCGGACUUCUUAUAUGCGCCACACCUGCAUAGUGAAUAUCGCUGCCUCCCUUCUGGUCGCCAACACCUGGUUCAUUGUGGUCGCUGCCAUCAACAGAGGAUUGAGCAUCA
B9: ENSG00000107863:be:win_6501|3pUTR|ENSG00000107863|bound_else_gene|NA|bound_elsewhere_windowed (ssRNA)
RNA: GGGAGUUCUACAGUCCGACGAUCAUACCAGAUUUGAUAUAAUGUUGUAACAUAGGUGUGUAGAUAGUGGAUCCUGGAUGGAACUGGCUUCUUUAUCGAGAAGAAUAUAAUUCUGCAUGAGGACUUAAUGAAUCCAAACCUGUGCAACAGAGGAUUGAGCAUCA
B10: ENSG00000163902:stop:overlap|stop_codon|ENSG00000163902|stop_codon|NA|stop_codon (ssRNA)
RNA: GGGAGUUCUACAGUCCGACGAUCUCAUCUCAGGAAAGCGCCAGGAGCUGGUCACCAAGAUCGACCACAUCCUGGAUGCCCUGUAGCCCCUGCCCGCAUCCUCCAGGGGGCCCAGGGUGCCUGCACUUUGCUGUGGCAGGCAGACAACAGAGGAUUGAGCAUCA
B11: ENSG00000198589:be:win_1351|CDS|ENSG00000198589|bound_else_gene|NA|bound_elsewhere_windowed (ssRNA)
RNA: GGGAGUUCUACAGUCCGACGAUCAUGCUCCAGGAUGUAAAGGCAGUUUUAACACAUUCCAUCCAAAGUGCAAUGCAUUCAAUUGGAGGAGUACAAGUACUAUUUCCACUUUUUGCACAGUUGGAUUACAGGCAAUAUUUGUCUCAACAGAGGAUUGAGCAUCA
B12: chr22:21921976:21922077:-|3pUTR|ENSG00000100034|msi1|total|mutant (ssRNA)
RNA: GGGAGUUCUACAGUCCGACGAUCGACUGCAGUGGGCUCGGACCGGCCCAUUGAGGUUUUCCGAAAAGCAGGAUUUGUUUUGUCCGGGAGGCAUGAUUUUGGUGAGAUCUUUCUGGAAGAGUUUUCCGCCUCUUUGUGAUGCUGCAACAGAGGAUUGAGCAUCA
B13: ENSG00000198589:be:win_6701|CDS|ENSG00000198589|bound_else_gene|NA|bound_elsewhere_windowed (ssRNA)
RNA: GGGAGUUCUACAGUCCGACGAUCUGUUUCCUUGGGUCAUCACUAAUUAUGAAUCAGAAGAACUGGAUCUUACCUUGCCCACCAACUUCAGAGAUUUGUCCAAGCCAAUAGGAGCUCUGAACCCAAAAAGAGCAGCAUUCUUCGCAACAGAGGAUUGAGCAUCA
B14: chr2:45599705:45599806:-|CDS|ENSG00000068784|msi1|FALSE|unique (ssRNA)
RNA: GGGAGUUCUACAGUCCGACGAUCCUCAUAUGUUCUCUUUGUGGUUUGAUAGAAUAGCUCUGUGGCUAUUGCUGAUACUGCUUUAGAAGACAGAAAAAAUAAAUUGGAUACUGUACAGACUCUGAAAACAGCCAAGACAAAACACAACAGAGGAUUGAGCAUCA
B15: chr16:68014110:68014412:-|CDS|ENSG00000263201|control|control|control (ssRNA)
RNA: GGGAGUUCUACAGUCCGACGAUCAGGCGUGCUCCCAAGAGACGUCAAGCUACGAUAGAGUCAGAUAAAGACCUGGGUUGCUCUAGCCCCAAAAUUCGGCGCUUGGAGCAUCGUGGCAGGAGACUGACCCCACAGAAGCUUGCUCAACAGAGGAUUGAGCAUCA
B16: chr9:114598126:114598323:+|3pUTR|ENSG00000136888|msi1|FALSE|unique (ssRNA)
RNA: GGGAGUUCUACAGUCCGACGAUCUCUUUGUAACCUGUGUGAAGCAGCAGCCAGCCUUAAAGUAGUCCAUUCUUGCUAAUGGUUAGAACAGUGAAUACUAGUGGAAUUGUUUGGGCUGCUUUUAGUUUCUCUUAAUCAAAAUUACAACAGAGGAUUGAGCAUCA
B17: chr8:30843048:30843149:-|CDS|ENSG00000133863|unk|total|mutant (ssRNA)
RNA: GGGAGUUCUACAGUCCGACGAUCGGAUACUAUAAUUGCUUCCAGAAAGUCAGAUCAUCCAAUAAACGAAGCAACAAUCCGCACCGAAAAUUCUAAAUUUAACAGUAAUUUGCUUGCACACCCAGAUAUUUGUUGUAUCCGUGACAACAGAGGAUUGAGCAUCA
B18: ENSG00000162599:stop:overlap|stop_codon|ENSG00000162599|stop_codon|NA|stop_codon (ssRNA)
RNA: GGGAGUUCUACAGUCCGACGAUCUCACACAGCAUCACCGACCUGUCAUUACAGGACCCAGAGCUUUUCUUUGGAGCCUCCCAUAGAAGAGAGACUGGGAUUUAAAGGCUGAUGCCAGAAAGCAAAAGCUAACGUGAAAAGAAUCAACAGAGGAUUGAGCAUCA
B19: ENSG00000076706:stop:overlap|stop_codon|ENSG00000076706|stop_codon|NA|stop_codon (ssRNA)
RNA: GGGAGUUCUACAGUCCGACGAUCGCAGCGGUGACAAGAGGGCUCCGGGAGACCAGGGAGAGAAAUACAUCGAUCUGAGGCAUUAGCCCCGAAUCACUUCAGCUCCCUUCCCUGCCUGGACCAUUCCCAGCUCCCUGCUCACUCCAACAGAGGAUUGAGCAUCA
B20: chrX:52926401:52927765:-|three_prime_utr|ENSG00000268350|control|control|control (ssRNA)
RNA: GGGAGUUCUACAGUCCGACGAUCUUGUUUGUAAUCAUAAAUUUGUGAGCCUAAGCUACUGCAAAGGAAACUGGCCAGGUUAUUAGCCCAAAUGAAGGCAGUGGGUAACUUGGGUUUAGCCCCAACACCAGCCGCACCUAGGAACAACAGAGGAUUGAGCAUCA
B21: chr6:56056589:56057844:-|three_prime_utr|ENSG00000124749|control|control|control (ssRNA)
RNA: GGGAGUUCUACAGUCCGACGAUCAAACCUGGAAUCCAAGGGCAACCAGGCCCCCCAGGCAUCUGCGACCCAUCACUAUGUUUUAGUGUAAUUGCCAGAAGAGAUCCGUUCAGAAAAGGACCAAACUAUUAGUGUCUGAUGCCUCAACAGAGGAUUGAGCAUCA
B22: chr16:55506527:55506628:+|3pUTR|ENSG00000087245|msi1|FALSE|unique (ssRNA)
RNA: GGGAGUUCUACAGUCCGACGAUCUAUCAGUUUUAAUGCUACUACUAACAAUGAACAGUAACAAUAAUAUCCCCCUCAAUUAAUAGAGUGCUUUCUAUGUGCAAGGCACUUUUCACGUGUCACCUAUUUUAACCUUUCCAACCACAACAGAGGAUUGAGCAUCA

What follows are binders tested against T1, UNK ZnF1-6 (called full-length) (assay: nsRBNS (natural sequence RNA bind-n-seq); RBNS binding buffer (assumed for nsRBNS): 25 mM Tris pH 7.5, 150 mM KCl, 3 mM MgCl2, 0.01% Triton X-100, 500 ug/ml BSA, 20 U/ml SUPERase-In, 4 C; UNK is unkempt and MSI1 is Musashi-1; names of the RNAs are library labels; protein concentration not given here; high values mean tight binding).

Row | Binder | binding signal [enrichment R]
1 | B1 | 0.87
2 | B2 | 0.343
3 | B3 | 1.38
4 | B4 | 0.619
5 | B5 | 0.473
6 | B6 | 0.271
7 | B7 | 0.531
8 | B8 | 0.665
9 | B9 | 0.289
10 | B10 | 0.875
11 | B11 | 0.257
12 | B12 | 0.611
13 | B13 | 0.462
14 | B14 | 0.357
15 | B15 | 0.611
16 | B16 | 1.36
17 | B17 | 0.47
18 | B18 | 1.15
19 | B19 | 1.17
20 | B20 | 0.424
21 | B21 | 1.06
22 | B22 | 0.763
